Measurements published in patent EP2818471A1, “Nitrogen bicyclic compounds as inhibitors for Scyl1 and Grk5” (Max-Planck-Gesellschaft zur Förderung der Wissenschaften …, priority 2013, dated 2014).

Experiments:
beta-TC6 cells [1] = assay: Insulin release in high glucose medium, rat/mouse insulin ELISA; assay type: cell-based
Method: Cells were cultured overnight, washed with PBS and then treated with 5 µM of test compounds as well as non-inhibitor controls for 2 h in a high glucose (4.5 g/L) DMEM at 37°C and 5 % (v/v) CO2. Release of insulin was detected using a rat/mouse insulin ELISA.
After incubation, the supernatant of the beta-TC6 insulinoma cells was diluted 1:20, whereas the supernatants of the RIN-T2B-5AH were diluted 1:10. The insulin release was measured with rat/mouse insulin ELISA (Merck Millipore Darmstadt, Cat. # EZRMI-13K) by following the manufacture's protocol. The enzyme activity of the horseradish peroxidase of the immobilized biotinylated antibodies was monitored spectrophotometrically by the increased absorbency at 490 nm, and corrected by the absorbency at 610 nm.
Afterwards, the supernatant was analyzed for insulin using the rat/mouse insulin ELISA (Merck Millipore Darmstadt, Cat. # EZRMI-13K) by following the manufacture's protocol..
Cells were treated for 2 h in a high glucose (4.5 g/L) DMEM media at 37°C and 5 % (v/v) CO2. Insulin release was analyzed using the rat/mouse insulin ELISA.

beta-TC6 cell system = assay: Comparison of insulin release with commercially available inhibitors, mouse/rat insulin ELISA; assay type: cell-based; conditions: for activation at 5 µM: Mus musculus, Beta-TC6, 2 h, DMSO = 0, Table 9
Method: Based on literature references, several commercially available inhibitors were compared with compounds according to the invention. […] Cells were cultured for 24 h before treated with the inventive compounds and control inhibitors for 2 h at 37 °C and 5 % (v/v) CO2. Insulin in the supernatant was detected by mouse/rat insulin ELISA.

C2C12 cells = assay: 2-NBDG glucose uptake by flow cytometry; conditions: for fold induction at 5 µM: Mus musculus, C2C12, 1 h, read-out: Ratio of 2-NBDG uptake
beta-TC6 cells [2] = assay: 2-NBDG glucose uptake by flow cytometry; conditions: Mus musculus, Beta-TC6, 1 h, read-out: Ratio of 2-NBDG uptake
beta-TC6 cells [3] = assay: Insulin HTRF assay, relative activity Ar normalized to sunitinib; assay type: cell-based; conditions: Mus musculus, normalized to positive control sunitinib (5 µM = 100%), Table 10
Source text: For further screening of compounds derived from compounds described above for their ability to regulate insulin release an insulin HTRF® (Homogeneous Time-Resolved Fluorescence; Cisbio International, France) was used. This assay is based on two antibodies against insulin binding to different epitopes of insulin. One of these antibodies is coupled to Europium (Ab-Eu-Cryptate) and the other one to the fluorophore XL665 (Ab-XL665). Is insulin secreted into the supernatant of cell culture both antibodies can bind to insulin and come therefore into close proximity which allows upon excitation that energy transfer between (FRET) the long-life fluorescent donor Europium (cryptate) and the acceptors XL665. FRET increases proportionally with insulin concentration.
The automated assay protocol is as follows: • On day 1 15k beta-TC6 cells per well were seeded for 24 or 48 h in 50 µl complete medium. On day 2 or respective on day 3 the medium is removed and cells are washed with 60 µl 1xPBS and 20 µl induction buffer is added using BioTek washer. Subsequently, 10 µl Sunitininb (5 µM f.c.) or the test compound in induction buffer; 0.5% f.c. DMSO (CyBi-well) is transferred to the cells. The cells are then incubated at 37°C for 2, 3, 4h.
The HTRF assay is carried out using Greiner 384-well 784075 assay plates. First 10 µl supernatant is transferred from the cell plates in HTRF plates (CyBi-well). 10 µl of 0, 1, 2, and 4 ng/ml Insulin standard controls in assay medium is used as a control. To each well 10 µl of combined 1:25 Ab-XL665 (Acc) and 1:20 Ab-Eu-Cryptate (WellMate) are added and incubated for 120 min at RT in the dark. Finally HTRF is measured on ViewLux ultra high throughput microplate imager (PerkinElmer).
The evaluation software DataFactoty derives relative activities Ar according to the following equation: Ar = (V-R(0%control))/(R(100%control) -R(0%control)) × 100 [formula] […]
The activity of the compounds was classified according to their Ar (relative activity) into the following ranges: Ar ≥ 100% + + + +; 50% ≤ Ar < 100% + + +; 20% ≤ Ar < 50% + +; 10% < Ar < 20% + [formula] Table 10. Ar (relative activity) values of inventive compounds

beta-TC6 = assay: MTT cytotoxicity assay (cell viability and proliferation); assay type: cell-based, mouse; conditions: for proliferation, raw data intensity (RDI): beta-TC6, 10 µM, 72 h treatment, MTT
Method: Using a MTT approach, we determined the effect on cell viability and proliferation of beta-TC6 and C2C12 cells to display potential cytotoxicity of the compounds according to the invention in vitro after a 72 h treatment.
For MTT (3-(4,5-dimethylthiazol-2-yl)-2,5-diphenyl tetrazolium bromide) transformation, 1/5 of total volume of a 5 mg/mL MTT stock solution was added to the cells as well as control wells and incubated at 37 °C, 5 % CO2 (v/v) for 1 h. Then 1/2 of total volume of MTT-stop solution was added and plates were incubated overnight in the dark at 25 °C. The optical density (OD) was measured using a multiwell spectrophotometer at a wavelength of 570 nm.

beta-TC6 cells [4] = assay: Insulin release in high glucose medium, rat/mouse insulin ELISA; assay type: cell-based; remark: listed apart in the source
full length Grk5 = biological target: T1, full length Grk5 (Homo sapiens, UniProt P34947); assay: GRK5 kinase activity assay (ADP Glo Kinase Assay); assay type: biochemical; conditions: Table 5
T1 construct: 2 µl 6/2 fold concentrated full length Grk5 (Millipore, #14-714) in reaction buffer is added to each well; purchased Millipore 14-714
T1 sequence (P34947 whole entry): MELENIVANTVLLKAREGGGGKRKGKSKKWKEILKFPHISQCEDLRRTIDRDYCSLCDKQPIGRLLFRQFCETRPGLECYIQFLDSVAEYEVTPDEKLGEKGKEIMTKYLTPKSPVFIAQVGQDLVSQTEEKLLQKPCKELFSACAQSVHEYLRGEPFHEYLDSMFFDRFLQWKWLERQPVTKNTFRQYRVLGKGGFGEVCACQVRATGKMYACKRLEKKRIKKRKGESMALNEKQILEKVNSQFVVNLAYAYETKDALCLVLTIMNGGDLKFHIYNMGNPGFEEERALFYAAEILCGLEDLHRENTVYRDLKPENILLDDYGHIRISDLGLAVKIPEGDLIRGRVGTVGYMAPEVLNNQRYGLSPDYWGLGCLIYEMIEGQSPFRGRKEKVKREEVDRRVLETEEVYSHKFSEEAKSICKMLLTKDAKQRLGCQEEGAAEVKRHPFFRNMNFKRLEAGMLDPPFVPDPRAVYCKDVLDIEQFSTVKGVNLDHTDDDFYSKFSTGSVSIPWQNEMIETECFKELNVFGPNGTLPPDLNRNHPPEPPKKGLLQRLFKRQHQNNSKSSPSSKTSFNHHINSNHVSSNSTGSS
Method: Increasing concentrations of GRK5 are incubated together with 100 µM ATP in the absence and presence of 10 µM casein in a reaction buffer. Within this incubation non-phosphorylated casein is converted into phosphorylated casein and ATP is converted into ADP. Thereafter nonconverted ATP is digested into AMP by addition of the ADP-Glo™Reagent. Subsequently the ADP that is produced by GRK5 activity is phosphorylated back to ATP by addition of Promega Kinase Detection Reagent. These ATP levels serve as measure for the GRK5 activity and are quantified by a luciferase/luciferin reaction.
Km(ATP) was determined by measuring the GRK5 activity at increasing ATP concentrations.
The reaction buffer used was composed of: 20 mM MES pH 6.0, 1 mM DTT, 10 mM MgCl2, 0.01 % Tween20 and the reaction volume was 6µl.
Firstly 4 µl 6/4 fold concentrated substrate and 6/4 fold concentrated ATP in 1 fold concentrated reaction buffer are added to each well of the assay plate. Subsequently 67 nl 1000 fold concentrated test compound in 100 % DMSO are added to each well except to C- and C+ wells using pin tool. Then 67 nl 100 % DMSO are pipetted to C- (no kinase, no compound) and C+ (no compound) wells using pin-tool and 2 µl reaction buffer are added to C- wells. […] After incubation for 120 min. at room temperature 6 µl ADP-Glo™ Reagent (ADP Glo™ Kinase Assay Kit: Promega, V9101) are added to each well to stop the kinase reaction and deplete the unconsumed ATP. After a second incubation for 40 min. at room temperature 12 µl of Kinase Detection Reagent are added to convert ADP to ATP and start luciferase / luciferin reaction for detection of ATP. […] Finally, after incubation for 40 min at room temperature the luminescence intensity was measured.
The maximal compound assay concentration was set to 100 µM, representing the compound assay concentration used in the primary screen.

[5] = Beta-TC6, 2 h, 5 µM, 2 h, high glucose (4.5 g/L) DMEM, Example 4, Figure 2, read-out: increase of insulin release
[6] = Beta-TC6, 5 µM, 2 h, high glucose (4.5 g/L), 0 µM = 1, Table 3, read-out: Release of insulin
[7] = Beta-TC6, 2 µM, 2 h, high glucose (4.5 g/L), 0 µM = 1, Table 3, read-out: Release of insulin
[8] = Beta-TC6, 10 µM, 2 h, high glucose (4.5 g/L), 0 µM = 1, Table 3, read-out: Release of insulin
[9] = Beta-TC6, 2 h, read-out: Release of insulin

Row | SMILES | activation at 5 µM (beta-TC6 cell system) [%] | fold induction at 5 µM (C2C12 cells) | fold induction at 5 µM (beta-TC6 cells [2]) | Emax (beta-TC6 cells [3]) [%] | also measured
1 | FC(F)(F)Oc1ccc(-c2cccc(N3CCN(c4ccccn4)CC3)n2)cc1 [Cpd c3, reference compound] | -8.54 | 0.914 | 1.26 |  | activation at 5 µM (beta-TC6 cells [1]; [5]): -11.7 ± 0.35%
2 | CNc1cc(-c2ccc(N)cc2)ncn1 [Cpd c4, reference compound] |  | 0.876 | 1.38 |  | activation at 5 µM (beta-TC6 cells [1]; [5]): 3.69 ± 0.43%
3 | Cn1cc(-c2ccc3ncc(-c4cccs4)n3n2)cn1 [compound 3, 6-(1-methylpyrazol-4-yl)-3-(2-thienyl)imidazo[1,2-b]pyridazine] | 14.4 |  |  | 20 to 50 | uptake of 2-NBDG compared with negative control background (C2C12 cells; C2C12, 1 h compound treatment, Figure 10): significantly increased uptake of 2-NBDG
4 | COc1cc(-c2ccc3ncc(-c4cccc(C(=O)NCCN(C)C)c4)n3n2)ccc1O [compound 4, N-(2-dimethylaminoethyl)-3-[6-(4-hydroxy-3-methoxy-phenyl)imidazo[1,2-b]pyridazin-3-yl]benzamide] | 30.1 |  |  | 10 to 20 | 
5 | COc1ccc(-c2ccc3ncc(-c4ccncc4)n3n2)cc1OC [compound 11, 6-(3,4-dimethoxyphenyl)-3-(4-pyridyl)imidazo[1,2-b]pyridazine] | 53.9 ± 17 | 2.05 | 2.17 | 20 to 50 | proliferation, raw data intensity (RDI) (beta-TC6): 1.17 ± 0.096 RDI; fold induction at 5 µM (beta-TC6 cells [1]; [6]): 1.91; activation at 5 µM (beta-TC6 cells [1]; [5]): 42.7 ± 10.4%; Insulin Release [%] (beta-TC6 cell system; 5µM, 2 h, DMSO = 0, Table 9): 53.86%; fold induction at 2 µM (beta-TC6 cells [4]; [7]): 1.33; fold induction at 10 µM (beta-TC6 cells [4]; [8]): 2.31
6 | CC(=O)Nc1cccc(-c2ccc3ncc(-c4cccc(NC(C)=O)c4)n3n2)c1 [compound 12, N-[3-[3-(3-acetamidophenyl)imidazo[1,2-b]pyridazin-6-yl]phenyl]acetamide] | 24.4 | 2.1 | 2.17 | 20 to 50 | toxic effect (beta-TC6; beta-TC6, 72 h treatment, concentrations up to 10 µM): no toxic effect at all; fold induction at 5 µM (beta-TC6 cells [1]; [9]): 1.34; activation at 5 µM (beta-TC6 cells [1]; Beta-TC6, 2 h, read-out: increase of insulin release): 30.5 ± 4.5%; fold induction at 2 µM (beta-TC6 cells [4]; [9]): 1.43; fold induction at 10 µM (beta-TC6 cells [4]; [9]): 2.16
7 | COc1cc(-c2cnc3ccc(-c4cc(OC)c(OC)c(OC)c4)nn23)ccc1O [compound 13, 2-methoxy-4-[6-(3,4,5-trimethoxyphenyl)imidazo[1,2-b]pyridazin-3-yl]phenol] | 91.6 | 2.4 | 2.61 | 20 to 50 | fold induction at 5 µM (beta-TC6 cells [1]; [6]): 1.39; fold induction at 2 µM (beta-TC6 cells [4]; [7]): 1; fold induction at 10 µM (beta-TC6 cells [4]; [8]): 1.37
8 | CN(C)CCNC(=O)c1cccc(-c2cnc3ccc(-c4cccc(NS(C)(=O)=O)c4)nn23)c1 [compound 14, N-(2-dimethylaminoethyl)-3-[6-[3-(methanesulfonamido)phenyl]imidazo[1,2-b]pyridazin-3-yl]benzamide] |  | 2.09 | 1.83 | 20 to 50 | proliferation, raw data intensity (RDI) (beta-TC6): 1.35 ± 0.038 RDI; fold induction at 5 µM (beta-TC6 cells [1]; [6]): 1.29; fold induction at 2 µM (beta-TC6 cells [4]; [7]): 0.97; fold induction at 10 µM (beta-TC6 cells [4]; [8]): 1.82
9 | Clc1cccc(-c2nnc3ccc(-c4ccoc4)cn23)c1 [compound 201, 3-(3-chlorophenyl)-6-(3-furyl)-[1,2,4]triazolo[4,3-a]pyridine] |  |  |  | 50 to 100 | IC50 (full length Grk5): < 5 µM
10 | c1cnc2ccc(-c3ccc4nnc(-c5cscn5)n4c3)cc2c1 [compound 235, 4-[6-(6-quinolyl)-[1,2,4]triazolo[4,3-a]pyridin-3-yl]thiazole] |  |  |  | 50 to 100 | IC50 (full length Grk5): 5 to 20 µM
11 | CC(=O)c1cccc(-c2cnc3cnc(-c4cccs4)cn23)c1 [compound 412, 1-[3-[6-(2-thienyl)imidazo[1,2-a]pyrazin-3-yl]phenyl]ethanone] |  |  |  | 50 to 100 | IC50 (full length Grk5): 5 to 20 µM

Like-named read-outs stand apart in the source and are kept apart here.
